Reference: PubChem BioAssay AID445 (National Center for Advancing Translational Sciences (NCATS), 2006)
About 40 (0.04%) of roughly 110,000 compounds were called active. Inconclusive means that the source gave no clear call. Such entries were picked first, then a sample of the others. The call rests on the fitted dose curve; in most records, active means well fitted curve in the direction sought with a large enough effect in the signal ratio (not every such curve was filed as active); inconclusive means small, poorly fitted or top-dose-only effect, or a change in a side signal; inactive means flat fitted curve, though single readings scatter; the % refers to the signal ratio. Where the call is inconclusive, the potency comes from a doubtful curve fit.

test: IkB Signaling; settings: ABC-DLBCL IkBa-CBG/CBR dual luciferase ratio (green luciferase fused to IkBa over red control in OCI-Ly3 lymphoma cells), 4 h; IkBa stabilization activation: at 57.1 µM (top of the series), scaled: untreated 0%, proteasome inhibitor 100% unless noted;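 on IkBa stabilization activation: 0% = basal untreated cells and 100% = reference inhibitor full response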
Method in brief: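 Luminescence ratio of IκBα-fused green versus native red beetle luciferase in OCI-Ly3 cells, 4 h post-doxycycline with compound; red signal alone, scaled from basal (0%) to zero light (-100%), flagged nonspecific or cytotoxic effects.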
Potency means the concentration at half of the fitted maximal effect.

SMILES	IkBa stabilization activation	Potency
CCCN(C(=O)Nc1cn(CC(C)C)c(=O)c2ccccc12)c1ccc(F)cc1	inconclusive: 1.32% [signal inhibitor]	
O=C(Nc1ccccc1)NC1(C(=O)NCc2ccc3c(c2)OCO3)CCCCC1	inactive	
CC(=O)NCc1nc2ccccc2n1Cc1ccccc1C	inactive	
CCN(CC)C(=O)c1cn(C)c(=O)c2cc(OC)c(OC)cc12	inactive	
Cc1ccc(C(=O)Nc2ccc3oc(-c4ccccc4C)nc3c2)cc1	inconclusive: -0.91% [signal inhibitor]	
CCCC(=O)c1ccc(N2CCN(C(=O)c3ccccc3)CC2)c(F)c1	inconclusive: 0.675% [signal inhibitor]	
CCCCN(C)S(=O)(=O)c1ccc(C(=O)Nc2ccc(-c3nc4ccc(C)cc4s3)cc2)cc1	inactive	
Cc1cc(NC(=O)c2cccn2-c2nnc(N3CCCCC3)s2)ccc1Br	inconclusive: 2.56% [signal inhibitor]	
Cc1cc(Cl)ccc1NC(=O)CCCn1nc(C)c2c(C)n(-c3ccccc3)nc2c1=O	inactive	
CCC1CN(C(=O)Nc2cc(Cl)c(OC)cc2OC)c2ccccc2O1 (stereo not given)	inactive	
CCc1ccc(C2c3c(oc4cc(C)c(C)cc4c3=O)C(=O)N2c2nc(C)c(C(=O)OC)s2)cc1 (stereo not given)	inactive	
COc1cccc(NC(=O)c2oc3ccc(S(=O)(=O)N4CCCCCC4)cc3c2C)c1	inconclusive: 3.01% [signal inhibitor]	
COc1ccccc1NC(=O)C1CCCN(c2ncnc3onc(-c4ccc(F)cc4)c23)C1 (stereo not given)	inconclusive: 0.981% [signal inhibitor]	
COc1cccc(NC(=O)C2CCN(S(=O)(=O)c3ccc4[nH]c5c(c4c3)CCCCC5)CC2)c1	inconclusive: 1.46% [signal inhibitor]	
Cc1cc(C)n(-c2nc(C)c(C)c(=O)n2CC(=O)Nc2cccc([N+](=O)[O-])c2)n1	inconclusive: 4.46% [signal inhibitor]	
COc1ccc(OC)c(NC(=O)N2CC3CCCN3c3ccccc32)c1 (stereo not given)	inconclusive: 16.5% [signal inhibitor]	
CCOC(=O)c1cccc(NC(=O)N2CC=C(c3c[nH]c4ccccc34)CC2)c1	inconclusive: -3.66% [signal inhibitor]	
COCCNc1oc(-c2ccc(OC)cc2)nc1C#N	inactive	
COc1ccccc1N1CCN(Cc2nc(N)nc(Nc3ccc(C)c(Cl)c3)n2)CC1	inconclusive: 4.08% [signal inhibitor]	
Cc1cc(Nc2ccc(Br)c(C)c2)n2nc(-c3ccco3)nc2n1	inconclusive: 4% [signal inhibitor]	
CCOC(=O)N1CCN(Cc2cn3ccccc3n2)CC1	inactive	
Cc1cc(C)n2nc(CNS(=O)(=O)c3ccccc3)nc2n1	inconclusive: 5.73% [signal inhibitor]	
O=C(CSc1nnnn1-c1ccc2c(c1)OCCO2)Nc1nc2c(s1)CCCC2	inconclusive: 5.26% [signal inhibitor]	

SMILES	IkBa stabilization activation	Potency
CCOC(=O)c1ccccc1NC(=O)COC(=O)CC(C)(C)CC1=NS(=O)(=O)c2ccccc2N1	inconclusive: -0.224% [signal inhibitor]	
Fc1cc(Br)ccc1Nc1nc2ccccc2n2nnnc12		inconclusive: 10 µM [signal inhibitor, partial curve]
Cc1cccc(Nc2nnc(-c3ccc(C)c(S(=O)(=O)N4CCN(C)CC4)c3)c3ccccc23)c1		inconclusive: 20 µM [signal inhibitor]
Cc1nn2c(=O)cc(COC(=O)c3cccc(NC(=O)c4ccc(F)cc4)c3)nc2s1	inconclusive: 5.48% [signal inhibitor]	
CCn1c(SCC(=O)N(C(C)C)C(C)C)nnc1-c1cc2ccccc2cc1O	inconclusive: 1.88% [signal inhibitor]	
O=C(Nc1ccc2c(c1)OCCO2)c1ccc(CN2CCOCC2)cc1	inactive	
COc1ccc(C(C)=O)cc1COC(=O)c1ccc2c(c1)OCO2	inactive	
CCOC(=O)C1=C(C)NC(=O)NC1c1ccc(OCC(=O)OC)c(OC)c1 (stereo not given)	inactive	
COC(=O)c1c(NC(=O)c2ccco2)sc(C(=O)N2CCCC2)c1C		inconclusive: 31.6 µM [signal inhibitor, partial curve]
Cc1ccc(-n2nc(-c3ccccc3)c3cnc4cc5c(cc4c32)OCO5)cc1C	inactive	
CC(=O)Nc1cccc(NC(=O)CSc2ccc(-c3sc(-c4ccccc4)nc3C)nn2)c1	inconclusive: 10.2% [signal inhibitor]	
O=C(O)CCc1ccc(-c2ccccc2)n1-c1ccc(C(=O)O)cc1	inconclusive: 11.6% [signal inhibitor]	
CN(CC(=O)O)Cc1c[nH]c2ccccc12	inactive: -0.365% [at 11.4 µM, scaled: untreated 0%, proteasome inhibitor 100%]	
COc1cc(-c2nc(-c3ccc(NC(=O)c4ccc5c(c4)OCO5)cc3)no2)cc(OC)c1OC	inconclusive: 4.38% [signal inhibitor]	
C[C@H](NC(=O)c1ccc(Cl)c(Cl)c1)c1ccc(-c2ccccc2)cc1	inactive: 3.13% [at 11.4 µM, scaled: untreated 0%, proteasome inhibitor 100%]	
COc1ccc(OC)c(NC(=O)CC(=O)Nc2ccc3nc4n(c(=O)c3c2)CCCCC4)c1	inconclusive: 9.76% [signal inhibitor]	
CCOc1ccccc1C(=O)N1CCC(c2nc3ccccc3o2)CC1	inconclusive: -0.318% [signal inhibitor]	
COc1cccc(OC)c1OCCCSc1nc(C)cc(=O)[nH]1	inactive	
Cc1ccc(C2CCN(C(=O)c3cnn(-c4ccc(C)c(C)c4)c3C3CCN(C(=O)OC(C)(C)C)CC3)C2)cc1 (stereo not given)	inconclusive: -0.239% [signal inhibitor]	
Cc1[nH]c2ccccc2c1NC(=O)CN1CCN(c2cccc(C(F)(F)F)c2)CC1	inconclusive: 4.92% [signal inhibitor]	
CCOC(=O)SC1=N/C(=C\c2ccc(N(C)C)cc2)C(=O)S1	inconclusive: 6.54% [signal inhibitor]	
Cc1ccc(-c2nnc3c4ccccc4c(C)nn23)cc1S(=O)(=O)N1CCN(CCO)CC1	inactive	
